# Among all 340,000 compounds or so, about 6,900 (2%) were called active. Rule as the data show it: active = inhibition above about 30%; inactive = below that, where a call was filed. The entries are a selection whose mix differs from that of the whole data set. The source gives no active or inactive call for entries shown without one.
# Target: D(2) dopamine receptor (Homo sapiens) (UniProt P14416)
# Test: HTS Assay for Allosteric Antagonists of the Human D2 Dopamine Receptor: Primary Screen for Antagonists; also: 0% is about no effect
# Conditions: HEK293 TREx D2 cells, calcium flux, dopamine EC80; at 10 µM; stronger effect = higher value
# How it was run: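 In this primary screen, negative modulation is detected by tracking calcium flux after an EC80 dopamine challenge in inducible HEK293 T-REx D2 cells preexposed to test compound for 180 s.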
# Sequence of UniProt P14416 (P14416 whole entry, looked up): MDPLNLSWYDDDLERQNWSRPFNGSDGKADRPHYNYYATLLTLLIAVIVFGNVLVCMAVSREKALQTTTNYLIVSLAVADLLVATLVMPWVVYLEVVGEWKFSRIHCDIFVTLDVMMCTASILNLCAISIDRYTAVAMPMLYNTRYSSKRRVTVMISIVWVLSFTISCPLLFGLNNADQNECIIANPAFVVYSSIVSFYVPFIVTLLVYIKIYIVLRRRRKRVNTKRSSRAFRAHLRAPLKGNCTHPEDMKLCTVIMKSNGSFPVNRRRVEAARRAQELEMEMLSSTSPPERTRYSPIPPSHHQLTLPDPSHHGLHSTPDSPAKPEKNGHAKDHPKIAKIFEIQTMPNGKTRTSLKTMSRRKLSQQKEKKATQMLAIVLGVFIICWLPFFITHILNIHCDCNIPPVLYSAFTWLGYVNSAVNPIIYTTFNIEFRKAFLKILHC
row,Structure (SMILES),inhibition
1,O=C(CSc1nccn1-c1cccc(Cl)c1)Nc1cccc2ccccc12,3.52%
2,CCOc1ccc(CCNC(=O)CCCc2nnc3n(CC)c(=O)c4sccc4n23)cc1,-3.6%
3,CCSc1ncc(Cl)c(C(=O)Nc2c(C(=O)Nc3ccccc3)oc3ccccc23)n1,9.11%
4,O=C(CCCCn1c(=O)c2ccccc2n(Cc2cccc(F)c2)c1=O)NCc1ccc2c(c1)OCO2,-3.99%
5,Cc1cccc(Nc2c(-c3ccsc3)nc3nc(C)cc(C)n23)c1,6.99%
6,CCOC(=O)c1c(C)[nH]c(C)c1S(=O)(=O)N(C)CC(=O)NCc1ccc(Cl)cc1,8.1%
7,COc1ccc(-n2cnc3cc(C(=O)NC4CCCCCC4)ccc32)cc1,-13.1%
8,Cc1ccc(C(=O)c2oc3ccccc3c2NC(=O)Cc2coc3ccc(C)cc23)cc1,1.21%
9,O=C(O)c1ccc2nc(-c3cc4cc(Cl)ccc4oc3=O)[nH]c2c1,-13.6%
10,Cc1ccc(-c2nc3c4ccccc4n(CC(=O)NCc4ccc(F)cc4)c(=O)n3n2)cc1,-0.928%
11,COc1ccc(C)cc1NC(=O)c1cnc2ccc(C)cn2c1=O,10.3%
12,Cc1cc2c(cc3c(SCc4ccc(Cl)cc4)nncn32)o1,14.4%
13,COCCNC(=O)CCCn1c(SCC(=O)c2ccc(Br)cc2)nc2c(sc3ccccc32)c1=O,-2.92%
14,O=C(OCc1c(Cl)cccc1Cl)c1ccccn1,active: 34.7%
15,Cc1ccc(OCC(=O)NCC(c2ccc(Cl)cc2)N2CCOCC2)cc1C (stereo not given),-1.62%
16,Cc1ccn2c(=O)cc(COc3ccc(NC(=O)COc4ccc(C)c(C)c4)cc3)nc2c1,-6.47%
17,CCOc1cc(C2c3c(oc4ccccc4c3=O)C(=O)N2Cc2ccc(OC)cc2)ccc1O (stereo not given),6.43%
18,CCOc1ccc(CNC(=O)c2ccc3[nH]c(C)c(C)c3c2)cc1OC,-8.88%
19,CCc1ccc(NC(=O)N(Cc2c[nH]c3ccccc23)C2CCCCC2)cc1,12.7%
20,CCOc1cc(C(=O)Nc2ccc(NC(=O)c3cc4ccccc4o3)c(OC)c2)cc(OCC)c1OCC,14.8%
21,CCOc1ccc2nc(N3CCCC(C(=O)Nc4cc(C)ccc4C)C3)sc2c1 (stereo not given),3.69%
22,Cc1ccc(NC(=O)Nc2c[nH]c(=O)[nH]c2=O)c(Cl)c1,-1.16%
23,Cc1ccc(C(=O)NCC(c2ccco2)N2CCCCC2)s1 (stereo not given),active: 36%
24,CC(=O)Nc1ccc(NC(=O)C2CCN(S(=O)(=O)c3ccc4c(c3)CCCC(=O)N4)CC2)cc1,3.77%

row,Structure (SMILES),inhibition
1,CCc1ccccc1NC(=O)CSc1nnc(-c2ccc(OC)cc2)s1,16%
2,Cc1ccc(NS(=O)(=O)c2cc(-c3cc(C)no3)ccc2C)c(Cl)c1,2.13%
3,Cc1cc(NC(=O)CCc2nc3cccnc3n2Cc2cccs2)ccc1Br,1.78%
4,Cc1cccc(NC(=O)c2oc3ccccc3c2NC(=O)c2cc(=O)c3ccc(C)cc3o2)c1,10.8%
5,CSc1nc(C(=O)N2CCCC(N3CCN(c4ccccc4C)CC3)C2)cs1 (stereo not given),active: 39%
6,Cc1ccc(-n2c(=O)c3c(cnn3C)n(Cc3ccc(Cl)cc3)c2=O)cc1,13.3%
7,CCC1CN(C(=O)N2CCC(C(=O)NCc3cc(OC)c(OC)c(OC)c3)CC2)c2ccccc2O1 (stereo not given),-2.22%
8,CN(C)c1ccc(NC(=O)Cn2nnc3sc4c(c3c2=O)CCC(C(C)(C)C)C4)cc1 (stereo not given),14.6%
9,CN(C)c1cccc(C(=O)Nc2nc3ccc(S(=O)(=O)N4CCCC4)cc3s2)c1,-1.49%
10,O=C(Nc1ccc(O)c(-c2nc3ccccc3o2)c1)c1ccc(Br)cc1,-6.03%
11,CCSc1ncc(Cl)c(C(=O)Nc2nc3ccc(Cl)cc3s2)n1,-24.3%
12,CN(C)c1ccc(CNC(=O)CN2C(=O)CSc3ccc(S(=O)(=O)N4CCCC4)cc32)cc1,8.92%
13,C[C@]12CCC(O)CC1CCC1C2CC[C@]2(C)C(c3cc(C(F)(F)F)n[nH]3)CCC12 (stereo not given in full),active: 44.1%
14,COc1ccc(NC(=O)CSC2=Nc3ccccc3N=C(c3ccc(F)cc3)C2)cc1OC,-1.37%
15,CCN(C(=O)CCNC(=O)Cn1cnc2ccccc2c1=O)c1cc(OC)ccc1OC,-10.1%
16,Cc1ccc2c(c1)c1c(c(=O)n(-c3ccccc3C)c(=O)n1CC(=O)c1ccc(Cl)cc1)n2C,-4.72%
17,O=[N+]([O-])c1ccc(OCCCCN2CCc3ccccc3C2)cc1,active: 62.1%
18,CCN(CC)CCNC(=O)c1cc([N+](=O)[O-])c(N(C)C)cc1OC,active: 94.1%
19,Cc1ccc(CNC(=O)CSc2nnc(C)c3c(C)n(-c4ccccc4)nc23)cc1,-3.46%
20,CC1CCN(S(=O)(=O)c2ccc3c(ccc(=O)n3CC(=O)NCc3ccccc3Cl)c2)CC1,-8.38%
21,COc1cccc(CNCc2cccn2-c2nnc(N3CCN(c4ccccc4)CC3)s2)c1,16.8%
22,COc1ccc(-c2[nH]ncc2C(=O)NCc2cccc(OC)c2)cc1,2.35%
23,Cc1ccsc1CN(C(=O)COc1ccc(Cl)cc1)C1CCS(=O)(=O)C1 (stereo not given),-1.69%
24,O=C(CCn1c(=O)c2sccc2n(CC(=O)Nc2ccccc2)c1=O)NCc1ccccc1Cl,-11.6%

row,Structure (SMILES),inhibition
1,CCn1c(=O)cc(SCC(=O)NCc2ccc(Cl)cc2)c2ccccc21,-9.38%
2,COc1ccc(Cn2c(CCC(=O)Nc3ccc(C)cc3C)nc3cccnc32)cc1,8.38%
3,Cc1oc2ccc(O)c(CN3CCN(C)CC3)c2c1C(=O)Nc1ccccc1,15.3%
4,COc1cccc(CNC(=O)c2cccc(-n3c(C)nc4cccnc43)c2C)c1,6.05%
5,OC1(c2ccc(Cl)cc2)CCN(Cc2cn[nH]c2-c2ccccc2)CC1,active: 84%
6,CC(C)OCCCNC(=O)c1ccc(Cn2c(=O)c3cccn3c3cccnc32)cc1,0.0563%
7,CCc1cc(C(=O)NCC(c2ccco2)N2CCCCC2)sc1C (stereo not given),active: 38.6%
8,O=C(O)Cc1sc(-c2ccc(C(=O)O)cc2)nc1-c1ccccc1,active: 32.7%
9,Cc1oc2ncn(C)c(=O)c2c1C(=O)Nc1ccc(F)cc1,1.45%
10,CCOC(=O)c1[nH]c(C)c(CCC(=O)Nc2ccccc2C(=O)OC)c1C,2.46%
11,Cc1cc(N2CCN(c3ccc(F)cc3)CC2)n2nc(-c3ccc(Cl)cc3)nc2n1,-7.09%
12,CCc1nn(CC(=O)NCCc2ccc(Cl)cc2)c(=O)c2cc3ccccc3n12,-2.53%
13,Cc1ccc(-c2nnc(Nc3ccccc3)c3ccccc23)cc1S(=O)(=O)N1CCOCC1,-4.1%
14,CCc1ccc2oc(=O)cc(CN3CCN(Cc4ccccc4)CC3)c2c1,active: 38.6%
15,Cc1cccc(N2CCN(C(=O)c3oc(=O)c4ccccc4c3-c3ccccc3)CC2C)c1 (stereo not given),-4.49%
16,NC(=O)c1cc(S(=O)(=O)NCC2CCC(C(=O)Nc3ccc(Cl)cc3)CC2)cs1 (stereo not given),-13.7%
17,Cc1nnc(N2CCN(C(=O)Nc3cccc(C(F)(F)F)c3)CC2)c2nn(-c3ccccc3)c(C)c12,11.9%
18,O=C(Nc1cccc(Cl)c1)c1csnn1,-22.6%
19,Cc1cc(C)nc(Sc2c(C)n[nH]c2C)n1,active: 31.6%
20,Cc1ccc(-c2nc(SCC(=O)NCC3CCCO3)c(-c3ccc(C)cc3)[nH]2)cc1 (stereo not given),17%
21,Cc1ccc(OCC(=O)Nc2ccc3nn(-c4ccc(Cl)cc4)nc3c2)cc1,2.83%
22,O=c1c2oc3ccccc3c2n(Cc2ccccc2)c(=O)n1Cc1ccc2c(c1)OCO2,-10.3%
23,CCOC(=O)c1cccc(Nc2ccc3cc(S(=O)(=O)N4CCCCC4)ccc3n2)c1,-1.4%
24,COc1cc(C2CC(=O)Nc3c2c(=O)[nH]c2ncnn32)ccc1O (stereo not given),7.67%

row,Structure (SMILES),inhibition
1,Cc1ccc(C)c(NC(=O)Cn2c(=O)n(CCC(=O)NCc3ccc4c(c3)OCO4)c(=O)c3ccccc32)c1,20.1%
2,CCCN1CCCc2cc(CN(CCCN3CCOCC3)C(=O)Nc3ccc(CC)cc3)ccc21,-2.26%
3,CCCC(=O)N1c2nc(C(C)C)nn2C2(CCCCC2)[C@@H]2CCCC[C@@H]21,4.91%
4,COc1cccc(NS(=O)(=O)c2ccc3[nH]cc(C(=O)N(C)C4CCCCC4)c(=O)c3c2)c1,-6.48%
5,CCCCn1c(=O)c2oc3ccccc3c2n(CC(=O)Nc2cccc(Cl)c2)c1=O,3.59%
6,CCCCc1nn2c(=O)cc(COC(=O)c3ccccc3NC(=O)c3ccccc3OC)nc2s1,-5.08%
7,COc1cc2c(cc1OC)n(CC(=O)c1ccc(F)cc1)c(=O)n1nc(CCn3nc(C)cc3C)nc21,2.03%
8,COc1cccc(CNC(=O)c2ccc(NC(=O)N3CCCCc4ccccc43)cc2)c1,6.18%
9,COc1ccc(C)cc1NC(=O)c1ccc2c(Cl)c3c(nc2c1)CCC3,0.717%
10,CCOC(=O)N1CCN(C(=O)c2ccc(Cn3c(=S)[nH]c4cc5c(cc4c3=O)OCO5)cc2)CC1,active: 31.2%
11,Cn1nc(C(=O)N2CCN(c3ccccc3)CC2)c2c1-c1ccccc1S(=O)(=O)C2,4.47%
12,COc1ccc(S(=O)(=O)c2c(SC)nn(Cc3ccccc3C)c2NC(C)=O)cc1,8.17%
13,O=C(CSc1nc2c([nH]c3ccccc32)c(=O)n1-c1ccccc1)N1CCCC1,4.93%
14,CC(Oc1ccc(Br)cc1)C(=O)NC1CCN(Cc2ccccc2)CC1 (stereo not given),active: 64.4%
15,CCCCCOc1ccc(C2c3c(oc4ccccc4c3=O)C(=O)N2c2nc(C)c(C)s2)cc1OCC (stereo not given),-7.9%
16,COc1ccc2c(c1)-c1nc(NC(=O)c3ccc(Cl)cc3)sc1CC2,4.65%
17,COc1ccc(CNc2ncnc3c2nnn3C)cc1,-7.85%
18,CCN1CCN(S(=O)(=O)c2ccc(Cl)c(C(=O)NC(C)(C)C)c2)CC1,active: 30.4%
19,Cc1cccc(NC(=O)Cn2cc(C(=O)c3ccco3)c3ccccc32)c1C,-6.4%
20,CCc1ccccc1NC(=O)Cn1nnc(C(=O)Nc2ccc(C)c(F)c2)c1N,8.03%
21,Cc1nn(CC(=O)NCc2ccc(OC(C)C)cc2)c(=O)c2c(C)n(-c3ccc(Cl)cc3)nc12,10.8%
22,COc1ccc(NC(=S)N(CCCN2CCCC(C)C2)Cc2cccs2)cc1 (stereo not given),active: 49.3%
23,Cc1ccc2oc(-c3ccc(Cl)c(NC(=O)c4ccc(-c5ccccc5[N+](=O)[O-])o4)c3)nc2c1,0.221%

# — PubChem BioAssay AID485344 (National Center for Advancing Translational Sciences (NCATS), 2010)
